The values below come from patent US4690926A, “Boxazomycin A and B, new antibiotics containing benzoxazole nucleus” (Bristol-Myers Company, priority 1986, dated 1987).

The assay concerns Gram-positive aerobic and Gram-positive/Gram-negative anaerobic organisms. The assay can be described thus: In vitro antibacterial spectrum (in words). It is filed as cell-based. Particulars: for effect of acidic medium on activity: acidic media; for antibacterial spectrum: in vitro.

Regarding `Cc1ncc(O)c(-c2nc3c(C(N)=O)c(O)cc(C)c3o2)n1` [Boxazomycin B], the “effect of acidic medium on activity” value is reported as “enhanced activity observed in acidic medium”; the antibacterial spectrum result is “inhibit growth of aerobic Gram-positive bacteria and anaerobes”.
Consider `Cc1cc(O)c(C(N)=O)c2nc(-c3nc(CO)ncc3O)oc12` [Boxazomycin A], for which the “effect of acidic medium on activity” value is recorded as “enhanced activity observed in acidic medium”; the antibacterial spectrum entry is “inhibit growth of aerobic Gram-positive bacteria and anaerobes”.
